Results are given in words; binding and its absence hold for the method and conditions named. Binding seen in cells or lysates may run through a third protein. Some binding calls cover weakened binding; strength is not graded here. One block for each molecule: values may come before it.
What was measured:
[1] = target: Proline-Rich Coiled-coil 2B (PRRC2B), endogenous (human (endogenous in HEK293T)) (UniProt Q5JSZ5); assay: co-IP; IP of PRRC2B from HEK293T lysate after RNase T1 digestion of RNA to less than 35 nt (Supplementary Figure S5B, C)
[2] = target: Proline-Rich Coiled-coil 2B (PRRC2B), endogenous (human (endogenous in HEK293T)) (UniProt Q5JSZ5); assay: co-IP; IP of endogenous PRRC2B from HEK293T lysate with rabbit anti-PRRC2B antibody and protein A Dynabeads, without RNase T1 treatment; western blot
[3] = target: FLAG-tagged full-length PRRC2B (human) (UniProt Q5JSZ5); assay: co-IP; IP of FLAG-tagged PRRC2B or its fragments from transfected HEK293T lysate with anti-DYKDDDDK magnetic agarose; western blot; RNase treatment not told for these panels
[4] = target: FLAG-tagged PRRC2B fragment P2 (human) (UniProt Q5JSZ5); assay: as above
[5] = target: PRRC2B 1-450 amino acids region (truncated P1) (human) (UniProt Q5JSZ5); assay: as above
[6] = target: FLAG-tagged full-length PRRC2B (human) (UniProt Q5JSZ5); assay: co-IP; IP of FLAG-tagged full-length PRRC2B or del450 from HEK293T lysate with anti-DYKDDDDK magnetic agarose upon RNase T1 treatment (5 U/μl); western blot
[7] = target: FLAG-tagged truncated PRRC2B with eIF4G2/eIF3 binding region removed (del450) (human) (UniProt Q5JSZ5); assay: as above

Sequences of proteins named here, by UniProt entry; tags and fusion partners are left off. A change or cut given only in a name is not applied to a line headed by its entry. A line that says so, or that is headed by a name, gives the form on record, which may keep a tag or linker. Residues count along the entry.
UniProt Q5JSZ5: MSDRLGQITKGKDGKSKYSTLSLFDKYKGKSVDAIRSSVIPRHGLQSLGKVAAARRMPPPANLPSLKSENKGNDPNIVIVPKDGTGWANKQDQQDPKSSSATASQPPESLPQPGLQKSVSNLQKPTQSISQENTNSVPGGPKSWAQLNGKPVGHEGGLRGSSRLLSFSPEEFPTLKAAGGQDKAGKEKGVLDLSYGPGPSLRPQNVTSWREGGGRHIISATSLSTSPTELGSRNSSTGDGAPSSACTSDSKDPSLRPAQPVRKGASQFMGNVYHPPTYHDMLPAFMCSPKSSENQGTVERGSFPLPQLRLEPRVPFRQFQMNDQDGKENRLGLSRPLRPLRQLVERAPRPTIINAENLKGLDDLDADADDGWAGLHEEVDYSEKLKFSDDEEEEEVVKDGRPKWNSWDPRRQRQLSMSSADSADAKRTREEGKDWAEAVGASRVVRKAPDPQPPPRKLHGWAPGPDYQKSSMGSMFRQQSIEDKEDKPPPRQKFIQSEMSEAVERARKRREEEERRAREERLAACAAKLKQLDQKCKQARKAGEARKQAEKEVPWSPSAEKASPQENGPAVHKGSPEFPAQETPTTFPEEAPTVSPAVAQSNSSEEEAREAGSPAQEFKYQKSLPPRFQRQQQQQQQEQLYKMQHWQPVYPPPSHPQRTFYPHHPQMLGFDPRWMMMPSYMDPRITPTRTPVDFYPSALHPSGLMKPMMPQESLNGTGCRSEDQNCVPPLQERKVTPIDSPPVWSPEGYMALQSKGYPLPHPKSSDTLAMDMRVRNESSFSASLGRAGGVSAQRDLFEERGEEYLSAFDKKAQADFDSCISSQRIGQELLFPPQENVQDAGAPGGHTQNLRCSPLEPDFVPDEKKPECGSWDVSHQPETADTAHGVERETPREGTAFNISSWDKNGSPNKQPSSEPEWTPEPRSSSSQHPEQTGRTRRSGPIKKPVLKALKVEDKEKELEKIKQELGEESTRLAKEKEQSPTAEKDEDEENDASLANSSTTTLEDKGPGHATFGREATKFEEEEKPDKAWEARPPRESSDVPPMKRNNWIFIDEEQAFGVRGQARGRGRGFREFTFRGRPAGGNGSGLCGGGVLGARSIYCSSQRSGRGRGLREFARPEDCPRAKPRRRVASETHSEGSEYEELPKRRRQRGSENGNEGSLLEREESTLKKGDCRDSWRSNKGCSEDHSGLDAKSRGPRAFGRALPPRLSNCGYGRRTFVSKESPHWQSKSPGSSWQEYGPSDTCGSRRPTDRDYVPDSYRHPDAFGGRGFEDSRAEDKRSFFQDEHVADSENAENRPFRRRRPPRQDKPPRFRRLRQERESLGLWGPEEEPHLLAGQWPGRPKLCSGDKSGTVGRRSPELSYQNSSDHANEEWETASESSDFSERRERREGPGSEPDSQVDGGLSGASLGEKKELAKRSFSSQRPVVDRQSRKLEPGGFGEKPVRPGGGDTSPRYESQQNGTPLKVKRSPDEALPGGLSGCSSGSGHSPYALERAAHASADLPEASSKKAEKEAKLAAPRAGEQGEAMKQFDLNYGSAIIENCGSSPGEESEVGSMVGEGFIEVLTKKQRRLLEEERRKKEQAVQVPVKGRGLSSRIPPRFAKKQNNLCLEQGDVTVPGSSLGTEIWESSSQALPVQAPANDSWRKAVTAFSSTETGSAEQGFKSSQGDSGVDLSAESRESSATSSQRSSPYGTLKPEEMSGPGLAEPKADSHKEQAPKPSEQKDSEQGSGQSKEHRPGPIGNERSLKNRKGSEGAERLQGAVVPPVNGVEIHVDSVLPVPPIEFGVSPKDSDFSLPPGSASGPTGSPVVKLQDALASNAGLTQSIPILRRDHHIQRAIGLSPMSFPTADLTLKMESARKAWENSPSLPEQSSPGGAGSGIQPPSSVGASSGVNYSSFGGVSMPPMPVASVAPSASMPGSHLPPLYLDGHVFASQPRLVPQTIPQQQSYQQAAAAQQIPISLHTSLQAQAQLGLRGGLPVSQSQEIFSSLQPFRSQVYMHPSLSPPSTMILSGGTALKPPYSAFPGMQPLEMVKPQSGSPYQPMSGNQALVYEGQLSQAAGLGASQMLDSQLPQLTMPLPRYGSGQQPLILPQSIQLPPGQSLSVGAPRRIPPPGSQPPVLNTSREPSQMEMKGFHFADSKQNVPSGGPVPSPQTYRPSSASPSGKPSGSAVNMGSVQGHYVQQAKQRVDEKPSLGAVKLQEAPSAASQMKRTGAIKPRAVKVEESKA
PRRC2B 1-450 amino acids region (truncated P1): residues 1-450 of Q5JSZ5
FLAG-tagged truncated PRRC2B with eIF4G2/eIF3 binding region removed (del450): residues 451-2229 of Q5JSZ5
FLAG-tagged PRRC2B fragment P2: residues 751-1500 of Q5JSZ5
UniProt P51114: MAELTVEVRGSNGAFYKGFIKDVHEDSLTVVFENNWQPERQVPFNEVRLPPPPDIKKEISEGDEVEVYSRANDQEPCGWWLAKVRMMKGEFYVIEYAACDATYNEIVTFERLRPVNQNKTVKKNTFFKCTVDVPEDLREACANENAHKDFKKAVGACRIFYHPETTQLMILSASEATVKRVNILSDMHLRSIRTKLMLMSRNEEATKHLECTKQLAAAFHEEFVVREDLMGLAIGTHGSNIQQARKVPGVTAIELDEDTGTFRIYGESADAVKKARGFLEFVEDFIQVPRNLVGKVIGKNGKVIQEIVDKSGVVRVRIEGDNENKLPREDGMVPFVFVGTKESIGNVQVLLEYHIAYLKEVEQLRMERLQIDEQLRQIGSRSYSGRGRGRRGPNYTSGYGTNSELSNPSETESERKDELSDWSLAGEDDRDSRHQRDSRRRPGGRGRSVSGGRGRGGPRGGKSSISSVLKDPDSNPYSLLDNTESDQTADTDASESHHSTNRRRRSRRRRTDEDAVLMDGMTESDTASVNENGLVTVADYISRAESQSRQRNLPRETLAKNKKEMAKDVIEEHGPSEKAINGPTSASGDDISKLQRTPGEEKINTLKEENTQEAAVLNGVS

binding [1]: binds
binding [2]: binds
binding [3]: binds
binding [4]: binds
Molecule: 3' UTR-binding protein FXR1 (from UniProt P51114 1-621)

binding [1]: binds
binding [2]: binds
binding [5]: binds
binding [3]: binds
binding [4]: no binding
binding [6]: binds
binding [7]: no binding
B1: eukaryotic translation initiation factor 4G2 (eIF4G2) (protein, UniProt P78344 1-907)
chain: MESAIAEGGASRFSASSGGGGSRGAPQHYPKTAGNSEFLGKTPGQNAQKWIPARSTRRDDNSAANNSANEKERHDAIFRKVRGILNKLTPEKFDKLCLELLNVGVESKLILKGVILLIVDKALEEPKYSSLYAQLCLRLAEDAPNFDGPAAEGQPGQKQSTTFRRLLISKLQDEFENRTRNVDVYDKRENPLLPEEEEQRAIAKIKMLGNIKFIGELGKLDLIHESILHKCIKTLLEKKKRVQLKDMGEDLECLCQIMRTVGPRLDHERAKSLMDQYFARMCSLMLSKELPARIRFLLQDTVELREHHWVPRKAFLDNGPKTINQIRQDAVKDLGVFIPAPMAQGMRSDFFLEGPFMPPRMKMDRDPLGGLADMFGQMPGSGIGTGPGVIQDRFSPTMGRHRSNQLFNGHGGHIMPPTQSQFGEMGGKFMKSQGLSQLYHNQSQGLLSQLQGQSKDMPPRFSKKGQLNADEISLRPAQSFLMNKNQVPKLQPQITMIPPSAQPPRTQTPPLGQTPQLGLKTNPPLIQEKPAKTSKKPPPSKEELLKLTETVVTEYLNSGNANEAVNGVREMRAPKHFLPEMLSKVIILSLDRSDEDKEKASSLISLLKQEGIATSDNFMQAFLNVLDQCPKLEVDIPLVKSYLAQFAARAIISELVSISELAQPLESGTHFPLFLLCLQQLAKLQDREWLTELFQQSKVNMQKMLPEIDQNKDRMLEILEGKGLSFLFPLLKLEKELLKQIKLDPSPQTIYKWIKDNISPKLHVDKGFVNILMTSFLQYISSEVNPPSDETDSSSAPSKEQLEQEKQLLLSFKPVMQKFLHDHVDLQVSALYALQVHCYNSNFPKGMLLRFFVHFYDMEIIEEEAFLAWKEDITQEFPGKGKALFQVNQWLTWLETAEEEESEEEAD

Source: paper PMC10287950
